± gives the standard deviation of the averaged measurements. This is one part of the list.
tested on: PfAP2-I AP2 domain 3 (GST-tagged); experiment: gcPBM binding intensity (ln(normalized median fluorescence intensity)); higher = stronger DNA binding
Procedure, shortened: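 Alexa488 anti-GST antibody, scanned at 488 nm, detected GST-tagged P. falciparum DNA-binding domains that had been expressed in E. coli and incubated for 1 h on an Agilent 4 × 180k array. The array carried primer-extended double-stranded 36-bp intergenic genomic probes and negative controls. Binding intensity is the highest Masliner-normalised natural-log median intensity across replicate spots of either orientation of each probe.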

Sequence | gcPBM binding intensity (ln)
TAAATGTCCTTATTTGCACACACACCCATAAGAAAT [CACACA_site3185] | 9.98 ± 0.28
TATATATAAAAATATACACACACAAATGTATATATA [CACACA_site7956] | 7.47 ± 0.32
ATGTAATGAAACATTGCACACATATAATAATATAAT [CACACA_site8402] | 8.365 ± 0.049
TTTTTATATGCGTATTGTACATTATACATATATATA [XGTACX_site6786] | 7.97 ± 0.38
CGTATATATAAATACACACACATATATATCTGTAAA [CACACA_site4272] | 7.79 ± 0.48
TTAATTTATTTATGCACACATATATAATTACCCATA [CACACA_site682] | 10.2 ± 0.67
AAAAAAAAAAAAAAGCGTACAAATAAAATATATTTA [XGTACX_site7195] | 8.18 ± 0.38
AATTAAATTACTTATACACACATAAAATGGGTGTAT [CACACA_site4703] | 7.37 ± 0.56
ATTCTTATAACAAGAAGTACAAATATATGTATATAT [XGTACX_site4528] | 7.84 ± 0.27
TTTTTTTTTAAGATGAAGATCAATATATAAATATAT [CACACA_negctrl_site1538] | 7.29 ± 0.67
TTTTCTCTCAAAAAATGTACATAATATATATATTTT [XGTACX_site4861] | 7.82 ± 0.47
AGAATATCAAAATAAAGTACATTTATTATATATATG [XGTACX_site7100] | 7.55 ± 0.29
AAAAAAAAAAAACATACACACATACATACCTATATA [CACACA_site6575] | 7.63 ± 0.34
AACATCAATTTATTTTCTTACATTATACGATTCATG [CACACA_negctrl_site1300] | 7.64 ± 0.62
AAAAAAAAATCAAAATGTACTTATTTTTATAATAAT [XGTACX_site4712] | 7.51 ± 0.33
TAATTATGCCAACACACACACACACCCAACTAAAAA [CACACA_site8823] | 8.22 ± 0.25
AAACATAAGAAACACACACACATATATATATATATA [CACACA_site3642] | 9.36 ± 0.32
ATGATGTGCAAGAGTAGTACACAATTTTGGGTTTAT [XGTACX_site501] | 8.6 ± 0.26
ATTAATTATATATATACACACACATACACCCAAATA [CACACA_site9126] | 8.52 ± 0.16
TAAATACTTCGTAAAACACACAAGTAGAAAAAAAAA [CACACA_site360] | 7.81 ± 0.71
AAAAATATAATATATGCACACATACATACATATATA [CACACA_site7915] | 9.06 ± 0.057
ATAATTAGTTCAATTTTTTTTTTTTTTTTTTTTTTT [CACACA_negctrl_site1371] | 9.525 ± 0.021
AAACAAAACAAAACATGTACACATTATATATATATA [XGTACX_site3374] | 9.29 ± 0.53

Sequence | gcPBM binding intensity (ln)
TTATTTATTTATTGTTGTACACAAAATGATTCTTAA [XGTACX_site6480] | 8.18 ± 0.33
TTCTAATAAATGTGTTGTACACCTTTAGCAACTATT [XGTACX_site3235] | 7.96 ± 0.37
TATATAAATATATACACACATACATACATACATATA [CACACA_site3835] | 7.72 ± 0.42
TAATAATTACAAAGAAGTACATAAAAAAAAATTTAT [XGTACX_site4684] | 7.67 ± 0.73
CTATATATATATTTCAGTACATATTAAGAATATATA [XGTACX_site4860] | 7.69 ± 0.4
AGGAAAAAAGAAAAAACACACATAAATATTTATATA [CACACA_site7446] | 7.44 ± 0.52
TATATATATTTATGCACACAAAATATATTATATAAT [CACACA_site5955] | 9.86 ± 0.38
TATACATCATTTTTCAACAACAAAAAAAAAAAAAAT [CACACA_negctrl_site1185] | 7.59 ± 0.47
ATATATATAAATACAACACACATGTAATATATAAAT [CACACA_site5766] | 8.03 ± 0.48
ACGTAAAATAGGGACGCATGCACAAATATTTTTAAA [TGCATGCA_site336] | 7.97 ± 0.7
TGAACAATATATAATAGTACATATTTATTTTTTTCT [XGTACX_site4256] | 7.38 ± 0.55
ATATGTTTTTTTTTTTTTTTTTAATTTGTCATAAAT [CACACA_negctrl_site1208] | 7.55 ± 0.5
TCTTTCAATATTAATGCATGTTAATAATAAATTTTA [TGCATGCA_site448] | 7.96 ± 0.57
TAAAGATGAAATATCACACATATATAAATATATAAA [CACACA_site4580] | 7.32 ± 0.35
TCTTTCTTATTTTAATGATATTTATTCATTCCAGTT [CACACA_negctrl_site1679] | 7.65 ± 0.76
ATATAAATAAATATATGTACACACACAAATATATAC [XGTACX_site3950] | 7.89 ± 0.49
AAAAAACACGCGCACACACACACACGCGCCCACATA [CACACA_site7106] | 8.26 ± 0.65
ATAAAAAAAAATATTTGTACACATATTTATATATTA [XGTACX_site8147] | 7.63 ± 0.36
AATACTAAAACCCATACACACACATATATATAGTAC [CACACA_site9041] | 8.04 ± 0.61
ACTTTTACACTTTGATTGCACTACTAAACCAGTTCA | 10.4 ± 0.16
AGAATTATTCTAAAAACACACAATACAAAAGTGCAT [CACACA_site3004] | 7.83 ± 0.61
ATAACTTTCTATACATGTACACATATATGGTATTTT [XGTACX_site7535] | 8.01 ± 0.7

— the supplement of paper PMC11417369
